# Experimental data as given in the supplement of paper PMC10338343.
# ± gives the standard deviation. The entries are a selection whose mix differs from that of the whole data set.
# System: MIWI (PIWIL1) piRISC loaded with L1MC piRNA (30 nt)
# Assay: pre-steady-state target cleavage rate (min^-1); MIWI and MILI are mouse PIWI proteins and EfPiwi is from a freshwater sponge; tags in brackets are library labels; higher = faster piRNA-guided slicing of the target
# Conditions: guide: L1MC piRNA 5'p-UAACUAAAUACUAUGCAAGCUGUAGGUCCU; auxiliary factor: none (no GTSF1)
# Outline: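 A transcribed, DNA-blocked target RNA library […] was incubated at 33 °C for 0–8 or 0–960 min with 1 nM active affinity-purified piRISC carrying one synthetic guide, in HEPES–potassium acetate buffer with or without 500 nM GTSF1 partner protein. Uncleaved targets were then sequenced and normalised to depth and to weakly complementary targets. Data from three trials were pooled, with k3 capped at 0.0001 min^-1, and a burst-and-steady-state fit yielded the pre-steady-state cleavage rate.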
# 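Further: 1 nM active piRISC with 0.1 nM target library at 33 °C single turnover.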
row,Sequence,pre-steady-state target cleavage rate
1,UCCUGGAUGUCGAACGAUUGUAUUUAGAUA,< 0.0001
2,UCCUGGAUGUCGAACUAUAGUAUUUAGUUA,< 0.0001
3,UCCUCGAUCAGCUUGCAUAGUAUUUAGUUA,0.0718 ± 0.013
4,UCCUGGAUGUCGAACGUUAGUAUUUAUUA,< 0.0001
5,UCCUCCAACAGCUUGCAUAGUAUUUAGUUA,0.0735 ± 0.013
6,UCCUGGAUGUCGAACCAUAGUAUUUACAUA,< 0.0001
